From PubChem BioAssay (NCATS)
Several values for one entry are separate records, joined by “and”; a condition that tells them apart may be missing. Equal values may be shown once. This list was built around the results that the source calls inconclusive (neither active nor inactive); the mix of calls is not that of the screen. No potency is given beside an inconclusive call; the fits are too rough. Activity calls are given as the source filed them. Calls follow the shape of the dose curve; as a rule, active = well fitted cell-killing curve with a large enough effect; inconclusive = small, poorly fitted or top-dose-only effect; inactive = no such curve, though single readings can be large or run the other way.

assay: qHTS of pediatric cancer cell lines to identify multiple opportunities for drug repurposing: Primary screen for NB1643 cells (AID 1347099); conditions: NB1643 neuroblastoma viability, CellTiter-Glo luminescence, 48 h; series mostly up to 46 µM; activity change, negative = cytotoxic: at the top concentration; also: nearly all actives have a fitted effect of over 50% in size;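 as to activity change, negative = cytotoxic: plate controls were DMSO neutral control for no effect and bortezomib positive control for full effect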
Method in brief: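 500-1,000 cells/well; 5 h pre-incubation 37 °C/5% CO2; compound pinned; 48 h; CellTiter-Glo, 15 min RT; luminescence. MIPE 11-pt from 0.78 nM, NPC 8-pt from 0.59 nM final. Bortezomib 2.3 µM final as positive control.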
Potency is read from the fitted curve at half-maximal effect; tags tell the direction and shape of the fitted curve.

SMILES | Potency | activity change, negative = cytotoxic
COc1ccc(CCN(C)CCCOc2ccc(S(=O)(=O)c3[nH]c4ccccc4c3C(C)C)cc2)cc1OC | inconclusive [cytotoxic, partial curve, poor fit] | –
CCN(CC)CCNC(=O)c1ccc2nc(-c3ccccc3)c(-c3ccc(CN4CCC(n5c(=O)[nH]c6ccccc65)CC4)cc3)nc2c1 | inconclusive [cytotoxic, single point] | –
S=P(N1CC1)(N1CC1)N1CC1 | inconclusive [cytotoxic, partial curve, poor fit] | –
CCN(CC)CCOc1ccc(Nc2ncc3cc(-c4c(Cl)cccc4Cl)c(=O)n(C)c3n2)cc1 | active: 3.72 µM | –
Cc1cc(OCCCS(C)(=O)=O)cc(C)c1-c1cccc(COc2ccc3c(c2)OC[C@H]3CC(=O)O)c1 | inconclusive [cytotoxic, single point] | –
Cn1cc(C[C@@H](N)C(=O)O)c2ccccc21 | – | inactive: 11.6% [at 16.1 µM]
CCN(CC)CCOc1ccc(Cc2ccccc2)cc1 | inconclusive [cytotoxic, partial curve, poor fit] | –
Nc1nc(=S)c2[nH]cnc2[nH]1 | active: 2.99 µM and active: 3.32 µM | –
COc1cc2nccc(Oc3ccc(NC(=O)Nc4cc(C)on4)c(Cl)c3)c2cc1OC | inconclusive [cytotoxic, partial curve, poor fit] | –
CC(C)[C@H](O)C(=O)N[C@@H](C)C(=O)N[C@@H]1C(=O)N(C)CCc2ccccc21 | active: 20.9 µM | –
Cc1c(-c2ccc(O)cc2)n(Cc2ccc(OCCN3CCCCCC3)cc2)c2ccc(O)cc12 | inconclusive [cytotoxic, single point] | –
Nc1cccc(S(=O)(=O)N2CCCN(S(=O)(=O)c3ccc4c(c3)OCCO4)CC2)c1 | inconclusive [cytotoxic, partial curve, poor fit] | –
CC1=C(C(=O)Nc2cc3cn[nH]c3cc2F)C(c2ccc(C(F)(F)F)cc2)CC(=O)N1 (stereo not given) | inconclusive [cytotoxic, partial curve] | –
Nc1ncnc2c1c(-c1cccc(OCc3ccccc3)c1)cn2C1CC(CN2CCC2)C1 (stereo not given) | inconclusive [cytotoxic, full curve] | –
CN(C)CCCC1(c2ccc(F)cc2)OCc2cc(C#N)ccc21 (stereo not given) | active: 16.6 µM | –
